The whole screen tested about 310,000 compounds, of which about 14,000 (4.5%) showed an effect of 50% or more. Effects have a minus sign here. The list shows a part of the results.
Target: human ether-à-go-go-related gene (hERG) potassium channel (human, UniProt Q12809)
Test: primary screen, population patch clamp on CHO cells stably expressing hERG
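Note: peak tail current of the secondary pulse compared with the same well before compound.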

Sequence of human ether-à-go-go-related gene (hERG) potassium channel (Q12809 whole entry, looked up): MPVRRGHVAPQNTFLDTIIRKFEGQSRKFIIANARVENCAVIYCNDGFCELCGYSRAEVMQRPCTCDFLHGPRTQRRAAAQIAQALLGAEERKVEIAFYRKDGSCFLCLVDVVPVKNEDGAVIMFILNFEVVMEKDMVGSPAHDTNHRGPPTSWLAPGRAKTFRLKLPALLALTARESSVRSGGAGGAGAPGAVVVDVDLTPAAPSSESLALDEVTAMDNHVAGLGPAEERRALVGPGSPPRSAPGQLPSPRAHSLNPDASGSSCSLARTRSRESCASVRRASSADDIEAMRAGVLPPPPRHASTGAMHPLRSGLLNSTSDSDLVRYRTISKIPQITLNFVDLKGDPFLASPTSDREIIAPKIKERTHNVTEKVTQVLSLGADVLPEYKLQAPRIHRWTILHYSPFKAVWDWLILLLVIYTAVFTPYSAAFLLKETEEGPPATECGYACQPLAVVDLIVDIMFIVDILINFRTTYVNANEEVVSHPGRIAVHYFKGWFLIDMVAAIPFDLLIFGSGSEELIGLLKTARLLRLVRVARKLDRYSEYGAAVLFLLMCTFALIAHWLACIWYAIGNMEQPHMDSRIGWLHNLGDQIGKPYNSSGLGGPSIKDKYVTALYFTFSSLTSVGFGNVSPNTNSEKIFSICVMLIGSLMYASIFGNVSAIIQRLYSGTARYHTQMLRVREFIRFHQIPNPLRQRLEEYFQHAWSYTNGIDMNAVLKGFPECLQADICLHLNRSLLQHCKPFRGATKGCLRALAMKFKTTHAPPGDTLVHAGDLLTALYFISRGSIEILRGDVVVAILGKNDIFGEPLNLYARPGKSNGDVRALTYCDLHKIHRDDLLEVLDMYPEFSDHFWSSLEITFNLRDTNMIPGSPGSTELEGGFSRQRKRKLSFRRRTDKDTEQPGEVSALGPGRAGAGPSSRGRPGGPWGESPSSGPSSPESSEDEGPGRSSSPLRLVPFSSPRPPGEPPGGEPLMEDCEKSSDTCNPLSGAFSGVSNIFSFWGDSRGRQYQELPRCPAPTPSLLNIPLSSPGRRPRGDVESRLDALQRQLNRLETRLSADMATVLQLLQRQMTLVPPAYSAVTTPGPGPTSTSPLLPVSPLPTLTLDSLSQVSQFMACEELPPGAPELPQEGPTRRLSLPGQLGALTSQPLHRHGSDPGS

Structure (SMILES) | hERG current change (%, negative = inhibition) at 10uM [%]
Cc1cc2c(cc1S(=O)(=O)CCC(=O)NC1CCC(C)CC1)OCC(=O)N2 (stereo not drawn) | -14.7
COc1cc(C(=O)N/N=C(\C)c2ccccn2)cc(OC)c1OC | 9.93
O=C(N/C(=C/C=C/c1ccccc1)C(=O)N1CCOCC1)c1ccccc1Cl | -16.6
CCCOc1ccc(-c2nc(C#N)c(NCC3CCCO3)o2)cc1 (stereo not drawn) | -14.7
O=C(COC(=O)Cc1ccc(Br)cc1)NC1CC1 | -18.8
O=C(O)Cc1ccc(Oc2ncc(C(F)(F)F)cc2Cl)cc1 | 12.2
CCOC(=O)c1c(NC(=O)CNC2CCCc3ccccc32)sc(C(N)=O)c1C (stereo not drawn) | 25.5
O=C(COC(=O)c1nc(Cl)c(Cl)c(Cl)c1Cl)c1ccc[nH]1 | -4.18
Cc1c(C(=O)Nc2ccc(S(=O)(=O)Nc3ncccn3)cc2)oc2ccc(F)cc12 | 23.5
CCc1nnc(NC(=O)CC23CC4CC(CC(C4)C2)C3)s1 | 15.7
CC(C)CC[n+]1ccn(C2=C([O-])c3ccccc3C(=O)/C2=N\S(=O)(=O)c2ccccc2)c1 | -3.71
O=[N+]([O-])c1ccc(Cl)c(S(=O)(=O)Nc2cccc(-c3ccc(N4CCOCC4)nn3)c2)c1 | -30
CC(=O)Nc1ccc(NC2=CC(=O)CC(C)(C)C2)cc1 | 8.98
Cc1nc2nc(COc3ccccc3)[nH]n2c(=O)c1Cl | 16.2
O=C(Nc1ccc(N2CCOCC2)cc1)c1cccnc1 | 16.7
Cc1ccc(S(=O)(=O)N2CCN(C(=O)COC(=O)CCOc3ccc(C(C)(C)C)cc3)CC2)cc1 | -15.7
O=C(/C=C/c1ccc(Cl)cc1)N1CCN(c2ccc(Cl)cc2[N+](=O)[O-])CC1 | -92.9
CC(C)(Oc1ccc(Cl)cc1)C(=O)Nc1cccnc1 | -5.92
CC(C)Nc1nc(-c2cccnc2)nc(-c2ccc(Cl)cc2)c1C#N | 8.35
Cc1cccc(N2CCN(C(=O)CCn3c(=S)[nH]c4cc5c(cc4c3=O)OCO5)CC2C)c1 (stereo not drawn) | 2.44
CCOc1ccc(NC(=O)C2CCC(CNc3c(N4CCCCC4)c(=O)c3=O)CC2)cc1 (stereo not drawn) | 20.5
Cn1nc(C(C)(C)C)c([N+](=O)[O-])c1C(=O)Nc1ccccc1 | 4.06

Structure (SMILES) | hERG current change (%, negative = inhibition) at 10uM [%]
COc1ccc(N2CC(C(=O)N[C@H](C(=O)NC3CCCCC3)C(C)C)CC2=O)cc1 (stereo partly drawn) | 14.5
Cc1nc2[nH]c(=O)c3c(n2n1)NC1=C(C(=O)CC(C)(C)C1)C3c1ccc(F)cc1 (stereo not drawn) | 12
Cc1ccc(C(=O)c2coc3ccc(O)c(Cl)c23)cc1 | -26.5
CCCc1cc(C(=O)Nc2sc3c(c2C#N)CCC3)no1 | 6.49
CCCOc1cccc(C(=O)N(Cc2cccs2)C2CCS(=O)(=O)C2)c1 (stereo not drawn) | -22.4
CCN(CC(=O)N1CCOCC1)S(=O)(=O)c1ccccc1 | 13.7
Cc1cccc(N2CCN(C(c3cccs3)c3nnnn3C(C)(C)C)CC2)c1C (stereo not drawn) | -1.77
COC(=O)C1=C(C)NC(=O)CC1c1cc2c(cc1Br)OCO2 (stereo not drawn) | 1.24
COc1ccc(C)cc1S(=O)(=O)N(C)CC(=O)N1CCCCCC1 | 14.7
NS(=O)(=O)c1ccc(N2C(=O)C3CC=CCC3C2=O)cc1 (stereo not drawn) | 31.6
CCOc1ccc(-c2cn(S(=O)(=O)c3cccc4nsnc34)nc2N)cc1 | -3.75
O=C(Cn1nnc(-c2cccs2)n1)NCc1cccs1 | 13.7
COc1cc(C#N)c(NC(=O)CN2CCC(C(N)=O)CC2)cc1OC | 10.3
CC1(c2ccc3c(c2)OCCCO3)NC(=O)N(CC(=O)NCCc2ccccc2)C1=O (stereo not drawn) | -7.38
CCCC(=O)Nc1c(-c2cccc(OC)c2)c(=O)c2ccccc2n1C | 10.5
O=C(N/N=C/c1cccnc1)NC12CC3CC(CC(C3)C1)C2 | -38.1
COc1ccccc1NC(=S)NC(NC(=O)c1ccco1)C(Cl)(Cl)Cl (stereo not drawn) | -9.8
CCOc1ccccc1N(CC(=O)NC1CCCCC1)C(=O)c1nsc(Cl)c1Cl | -7.03
CCOC(=O)c1cccnc1SCC(=O)N(C)c1ccccc1 | -6.39
Cc1cc(C(=O)N/N=C2\CCCC(=O)C2)c(C)n1-c1ccccc1 | 9.44
COc1cccc(COC(=O)c2cc(=O)[nH]c3ccc(S(=O)(=O)N4CCOCC4)cc23)c1OC | -19.2
COc1ccc(CNC(=O)CN(C(=O)CCC(=O)Nc2nccs2)c2ccccc2C)cc1 | -29.1

Structure (SMILES) | hERG current change (%, negative = inhibition) at 10uM [%]
O=C(CSc1nnc(-c2ccncc2)n1CC1CCCO1)NCc1ccccc1 (stereo not drawn) | 6.97
Nc1c(Cl)ncnc1N/N=C/c1ccccn1 | -36.3
COC(=O)c1ccc(NC(=S)N2CCN(Cc3cccc(C)c3)CC2)cc1 | -14.6
CNC(=S)N/N=C1\C(=O)c2cccc3cccc1c23 | 11.9
O=C(CCCn1c(=S)[nH]c2ccccc2c1=O)N1CCOCC1 | -7.78
O=C(O)CCNC(=O)c1ccc(Br)o1 | 7.01
CC1=NN(c2ccc(Cl)cc2)C(=O)C1 | 3.77
CCOc1ccc(N2CC(=O)Nc3ccccc3NCC2=O)cc1 | -2.28
O=C(NCc1ccncc1)C1CCCCC1 | 1.14
O=C(Cn1cccc1C(=O)c1ccccc1)NCc1cccc(Cl)c1 | 13.4
Cc1ccc(C(=O)OCc2nnc(-c3ccccc3)o2)s1 | -7.37
CCOc1ccc(/C=N/Nc2nc(C)cs2)c(O)c1 | 31.7
CCc1nnc(NC(=O)Cc2c[nH]c3ccccc23)s1 | 2.92
O=C(CN1C(=O)NC(c2ccccc2)(c2ccccc2)C1=O)NC1CCCCC1 | -14.8
CCc1nnc(NS(=O)(=O)c2ccc(N3C(=O)C4CC=C(Cl)CC4C3=O)cc2)s1 (stereo not drawn) | 4.84
Cn1c(COc2ccccc2)nnc1SCC(=O)Nc1ccc(N2CCOCC2)c(Cl)c1 | -4.61
CCC(C)(C(=O)NC1CCCCC1)N(Cc1ccco1)C(=O)CNC(=O)c1ccccc1 (stereo not drawn) | -4.05
CCNC(=S)N/N=C/c1cc(C)n(-c2ccc(Cl)cc2)c1C | 20.5
Cc1ccc(-c2nc(N)n(S(C)(=O)=O)n2)cc1 | 7.05
Cc1ccc(OCC(=O)NNC(=O)C2CCN(c3ncnc4sc(C)c(C)c34)CC2)cc1 | -50.7
CC(=O)C1=C(C)N(Cc2ccccc2)C(=O)N[C@H]1c1cccc(F)c1 | -30.2
COc1ccc(N2CC(C(=O)Nc3ccccc3N3CCCC3)CC2=O)c(OC)c1 (stereo not drawn) | -4.31

Structure (SMILES) | hERG current change (%, negative = inhibition) at 10uM [%]
CCOC(=O)c1sc(NC(=O)CCN2C(=O)c3cccc([N+](=O)[O-])c3C2=O)c(C(=O)OCC)c1C | 0.676
Cc1cccc(-c2cc3nc(C)cc(N4CC(C)CC(C)C4)n3n2)c1 (stereo not drawn) | 12.3
CCCCCCSC1=C(C#N)C(c2ccc(O)cc2)CC(=O)N1 (stereo not drawn) | -4.91
COC(=O)COc1cccc2c(=O)n(CC(=O)NCCc3ccccc3)ccc12 | -13.8
O=C1CC(c2ccco2)CC(O)=C1C=Nc1cc(Cl)ccc1O (stereo not drawn) | 11.6
O=C(NCC1CCCO1)C1CC(=O)N(C2CCCCCC2)C1 (stereo not drawn) | 19.3
O=C(c1cccc(S(=O)(=O)N2CCCC2)c1)c1cccc(S(=O)(=O)N2CCCC2)c1 | -1.06
COc1ccc(C(=O)/C=C/Nc2cc(C)ccn2)cc1 | -19.7
O=C(NCc1ccc(F)cc1)C(c1ccccc1)N(C(=O)c1csnn1)c1ccccc1 (stereo not drawn) | 6.97
O=C(Cn1cnc2ccccc2c1=O)Nc1ccc2c(c1)OCO2 | 1.23
CC(Oc1ccccc1Br)C(=O)N1CCc2ccccc21 (stereo not drawn) | -0.0538
O=c1[nH]c2ccc(Cl)cc2c(-c2ccccc2)c1SC(=S)N1CCOCC1 | -7.24
CCOCCNC(=O)c1ccccc1C(=O)NCCOCC | -11.1
COc1cc(CNCCN2CCOCC2)ccc1OCc1cccc(Cl)c1.Cl | -63.2
Cc1c(Cl)cnc(NC(=O)COC(=O)CCc2nc3ccccc3s2)c1Cl | -4.89
O=C(Oc1ccccc1C(=S)N1CCOCC1)c1ccccc1 | 7.59
CNc1c(-n2cc(C(=O)OC)c(C(=O)OC)c2C(=O)OC)c(=O)n(C)c(=O)n1C | 14.8
C[n+]1ccccc1COc1ccc(C(C)(C)C)cc1.Cc1ccc(S(=O)(=O)[O-])cc1 | 2.84
N#CCCn1cc(CNCc2ccccc2)c(-c2cccc([N+](=O)[O-])c2)n1 | -33.3
Cc1ccc2cc(C)c3nnc(SCC(=O)c4cccs4)n3c2c1C | -23.1
CCc1ccc2[nH]c(=O)c(CN(Cc3ccco3)S(=O)(=O)c3ccc4c(c3)OCCO4)cc2c1 | 3.47
